Measured values: paper PMC6919601, “Identification of Plasmodium dipeptidyl aminopeptidase allosteric inhibitors by high throughput screening” (PLoS ONE, 2019)
Hit rate of the full screen: of about 110,000 compounds, about 230 (0.21%) showed an effect of 50% or more. The list shows a part of the results.

Each compound was assayed against DPAP1 (Plasmodium falciparum, UniProt Q8IIJ9) (assay: primary screen, percent inhibition; read by cleavage of a fluorogenic dipeptide substrate; higher = more effect of the substance).
Parameters: species or system P. falciparum D10 trophozoite lysates; single well
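Further: 30 min substrate incubation versus DMSO and 10 µM JCP410 controls.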

DPAP1, sequence (Q8IIJ9 whole entry, looked up): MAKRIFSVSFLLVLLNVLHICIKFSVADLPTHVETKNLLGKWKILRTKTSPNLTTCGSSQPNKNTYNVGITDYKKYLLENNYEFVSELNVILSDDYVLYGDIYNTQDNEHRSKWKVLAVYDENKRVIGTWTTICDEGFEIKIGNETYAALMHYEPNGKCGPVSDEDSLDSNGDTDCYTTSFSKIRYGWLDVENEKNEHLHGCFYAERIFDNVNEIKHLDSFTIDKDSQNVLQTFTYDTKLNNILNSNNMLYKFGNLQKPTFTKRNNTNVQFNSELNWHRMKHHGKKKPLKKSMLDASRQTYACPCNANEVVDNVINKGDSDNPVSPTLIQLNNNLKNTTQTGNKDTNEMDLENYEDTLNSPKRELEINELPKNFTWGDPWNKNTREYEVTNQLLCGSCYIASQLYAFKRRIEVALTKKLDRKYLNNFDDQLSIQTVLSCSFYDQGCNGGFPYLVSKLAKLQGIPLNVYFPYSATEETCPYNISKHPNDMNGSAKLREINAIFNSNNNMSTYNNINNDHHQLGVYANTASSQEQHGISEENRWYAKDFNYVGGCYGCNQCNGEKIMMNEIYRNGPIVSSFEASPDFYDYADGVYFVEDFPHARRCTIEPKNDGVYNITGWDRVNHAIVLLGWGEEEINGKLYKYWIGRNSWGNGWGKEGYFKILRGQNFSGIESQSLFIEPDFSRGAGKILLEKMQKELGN

Structure (SMILES) | % Inhibition @ 10 uM
Cc1ccnc(NS(=O)(=O)c2c(C)cc(C)cc2C)c1 | -1.42%
Cc1ccsc1C1C=C(c2ccc(Br)cc2)Nc2nnnn21 (stereo not shown) | -5.19%
CC1CN(C2CCN(C)CC2)CC(C)O1 (stereo not shown) | -9.34%
Cc1cccc(C2=NN3C(=N)/C(=C\c4coc5ccccc5c4=O)C(=O)N=C3S2)c1 | 2.74%
COc1ccc(C2C(C#N)=C(C)N=C3CC(c4ccc(Cl)cc4)CC(O)=C32)cc1OC (stereo not shown) | 1.01%
CCOc1cc2c(cc1OCC)C1C(C(=O)NCc3ccc(F)cc3)c3ccccc3C(=O)N1CC2 (stereo not shown) | -5.29%
CCOc1ccc(CCNS(=O)(=O)c2ccc3nc(O)ccc3c2)cc1OCC | -0.901%
Cc1nc2nc(C)c(NS(=O)(=O)c3ccc(Cl)s3)c(O)n2n1 | 1.49%
COc1ccccc1OCC(=O)Nc1ccc(S(=O)(=O)Nc2ccc(C)cc2C)cc1 | 2.49%
Cc1ccc(NC(=O)Cn2ncc3c4ccccc4nc-3c2O)nc1 | -1.96%
CCC(C)NC(=O)CN1C(=O)c2ccccc2Sc2ncccc21 (stereo not shown) | -4.46%
COc1ccc(-c2cc(C(F)(F)F)n3nc(C(=O)N(C)Cc4cn(C)nc4C)c(Cl)c3n2)cc1 | 0.64%
COC(=O)C1(C)CC1(c1ccccc1)c1ccccc1 (stereo not shown) | -0.0369%
CC(=O)NC(C)(C)C1CC=C(C)/C(=N\O)C1 (stereo not shown) | -7.55%
COc1ccc(CNC(=O)c2cc(C(F)(F)F)nn2C)cc1OC | -3.07%
COc1cccc(-n2nnc3c(=O)n(CC(=O)NCC4CCCO4)cnc32)c1 (stereo not shown) | 1.24%
COc1cc(C2=NOC(C(=O)N3CCCCCC3)C2)cc(OC)c1OC (stereo not shown) | 1.24%
CC1=C(C#N)C(c2ccc(Br)cc2)C2=C(N1)c1ccccc1S2(=O)=O (stereo not shown) | -1.98%
COc1ccc(Nc2nn(-c3ccc(F)cc3)nc2C(C)=O)cn1 | -5.33%
O=C(NCC1CCCO1)c1ccc(N2C(=O)C3C4c5ccccc5C(c5ccccc54)C3C2=O)cc1 (stereo not shown) | -0.992%
CS(=O)(=O)N1CCN(c2ccc(NC(=O)c3cc4ccccc4o3)cc2)CC1 | -6.02%
COc1ccccc1CNC(=O)C1CCCN(c2nn3c(=O)cc(C)nc3s2)C1 (stereo not shown) | 1.38%
O=C(COc1ccccc1)NC1CC2CCC1C2 (stereo not shown) | -2.28%
Cc1oc2ccc(O)c(CN3CCCC(C)C3)c2c1C(=O)NC1CCCCC1 (stereo not shown) | 3.74%
Cc1nc(SCc2ccccc2)nc2ccccc12 | -3.37%

Structure (SMILES) | % Inhibition @ 10 uM
O=C1NC(c2ccc(F)cc2)C(C(=O)c2ccccc2)C(O)(C(F)(F)F)N1 (stereo not shown) | 3.13%
O=C(Cn1ncc2ccccc2c1=O)NC(c1ccccc1)c1ccccc1 | -3.23%
Cc1cc(Cl)cc(C)c1OCCCN1CCCC1 | -8.99%
CCC(=O)Nc1ccc(-c2cn3cccc(C)c3n2)cc1 | 3.21%
C=CCn1c(SCC(=O)Nc2ccc(NC(C)=O)cc2)nc2sc(-c3ccccc3)cc2c1=O | -3.46%
COc1ccc2nc(NS(=O)(=O)c3ccc(C)cc3)sc2c1 | 1.84%
COC(=O)CCC(=O)Nc1ccccc1Cl | -2.51%
O=C(C1=C(O)C(=O)N(CCc2c[nH]c3ccccc23)C1c1ccc(O)cc1)c1ccccc1 (stereo not shown) | 2.27%
CCc1cccc(C)c1NC(=O)CCCOc1ccccc1 | -16.5%
CCOC(=O)C1=C(O)c2ccccc2C1=O | 4.89%
CCNC(=O)/C(C#N)=C/c1c(Oc2ccc(C)cc2)nc2c(C)cccn2c1=O | 2%
Cc1cccc(NC(=O)CCc2ccc(S(=O)(=O)NC(C)c3ccccc3)cc2)c1 (stereo not shown) | 3.29%
COc1ccc(Br)cc1CN1CCC(O)CC1 | 1.38%
Cc1ccc(/C(O)=C/C=N/c2ccc(S(=O)(=O)N=C(N)N)cc2)cc1 | -2.83%
Cc1cc(Oc2nc3c(C)cccn3c(=O)c2/C=C(\C#N)C(=O)NC2CCCCC2)ccc1Cl | -1.43%
O=C(Nc1ccc2c(c1)OCCO2)Nc1ccccc1Cl | 5.24%
CCCCn1c(SCC(=O)NCCc2ccc(S(N)(=O)=O)cc2)nc2ccsc2c1=O | -1.52%
O=C(O)/C=C/S(=O)(=O)c1ccccc1 | -0.778%
OC1(C(O)(C#CCN2CCCCC2)c2ccccc2)CCCC1 (stereo not shown) | 2.86%
Cc1ccc(-c2ccc(=O)n(CC(=O)N3CCC(C)CC3)n2)cc1 | 0.514%
COc1ccc(C2N(c3cc(C)on3)C(=O)C3CCCN32)cc1OC (stereo not shown) | -2.29%
O=C(c1ccc(Cl)c(Cl)c1)N1CCN(c2ccc(F)cc2)CC1 | -6.59%
c1cncc(CN2CCSCC2)c1 | -2.56%
CCN(CC)C(=O)c1sc(NC(=O)c2cc(-c3ccc(C)o3)nc3ccccc23)c(C(N)=O)c1C | 41.2%
CC(C)(C)c1ccc(C2=NC3(CCN(C(=O)c4ccccc4F)CC3)NC2=O)cc1 | 2.25%

Structure (SMILES) | % Inhibition @ 10 uM
COc1ccc(C(=N)NOC(=O)c2ccccc2)cc1OC | 3.79%
c1ccc(CCn2c3ccccc3c3nnc(SCCN4CCOCC4)nc32)cc1 | 3.86%
O=C(O)C/N=c1\c([N+](=O)[O-])c(O)oc2ccccc12 | -0.999%
CC(=O)Nc1ccc(NC(=O)c2ccc(C3SCC(=O)N3Cc3ccccc3)cc2)cc1 (stereo not shown) | 6.69%
CCn1c(=S)[nH]c2c(c1=O)C1(CCCCC1)Cc1ccccc1-2 | -3.09%
CSc1ccc(C2C(C#N)=C(N)N(c3ccccc3)C3=C2C(=O)CCC3)cc1 (stereo not shown) | -3.46%
CCN1CCN(C(=O)c2ccc(Cn3c(SCc4cccc(C)c4)nc4ccncc43)cc2)CC1 | -1.92%
Cc1ccc(OCC(=O)NC2CC2)cc1C | -6.41%
COc1ccccc1[C@@H]1[C@@H](C(=O)c2ccccc2)N2c3ccccc3C=C[C@@H]2C1(C#N)C#N | -7.74%
C#CC(C)(CC)NC(=O)c1ccccc1C(=O)O (stereo not shown) | -4.11%
CC(C)(C)C1(C)O[C@@H](CO)[C@H](CO)O1 | -8.51%
CCOC(=O)c1c(-c2ccccc2)csc1NC(=O)c1cc(-c2ccccc2OC)on1 | -1.28%
O=C(C1CC(c2ccc(F)cc2)=NO1)N1CCC2(CC1)OCCO2 (stereo not shown) | -3.94%
Cc1oc2cc3oc(=O)c(CC(=O)N4CCOCC4)c(C)c3cc2c1C | 4.13%
CC(C)C[C@H](NC(=O)OC1c2ccccc2-c2ccccc21)C(=O)NCC#N | -4.72%
CCOC(=O)c1c(C)[nH]c(C)c1S(=O)(=O)N1CCC(C(=O)NCc2ccc3c(c2)OCO3)CC1 | -4.55%
COc1ccccc1-c1nnc(C2CCN(C(=O)c3ccco3)CC2)o1 | -6.92%
Cc1ccc(S(=O)(=O)N(CC(=O)Nc2ccccc2C(=O)O)c2ccccc2)cc1 | -5.13%
COc1ccccc1OCC(=O)Nc1ccc(S(N)(=O)=O)cc1 | -0.884%
Cn1ncc2c(NCc3ccco3)ncnc21 | 5.84%
c1cncc(C2OCC(CN3CCCCC3)O2)c1 (stereo not shown) | -0.415%
COCCN1C(=O)/C(=C\c2cc(C)n(-c3ccc(Cl)c(Cl)c3)c2C)C(C(=O)OC)=C1C | 12.3%
CC1=C(c2ccc(Cl)cc2)S(=O)(=O)N=C1N1CCC(C(=O)NCCc2cccs2)CC1 | 1.63%
Cc1ccc(-c2noc(CCCC(=O)NC(C)C)n2)cc1 | 2.21%
CC1(C)[C@H]2CC=C(CN3CCN(C/C=C/c4ccccc4)CC3)[C@@H]1C2 | 1.74%

Structure (SMILES) | % Inhibition @ 10 uM
COc1ccc(OCC(=O)Nc2ccc(S(=O)(=O)N3CCCCCC3)cc2)cc1 | -9.24%
COc1ccc(N2CCN(S(=O)(=O)c3ccc(F)c(Cl)c3)CC2)cc1 | -4.86%
Cn1c(-c2ccccc2)cnc1NCc1cccc(O)c1 | -1.11%
CC(C)CN1C(=O)C2C3CC4C5(C)CCCC(C)(C(=O)O)C5CCC4(C=C3C(C)C)C2C1=O (stereo not shown) | 7.63%
Cc1ccc(NC(=O)c2ccn(C)n2)cc1S(=O)(=O)N1CCOCC1 | -15.9%
Cn1c(=O)c2c(ncn2Cc2ccccc2F)n(C)c1=O | -2.3%
Cn1cc(CNC(=O)c2sc3cc(Cl)ccc3c2Cl)cn1 | -0.522%
Brc1ccccc1CN1CCN(c2ncccn2)CC1 | -1.04%
COc1ccc(C=O)cc1Cn1c(=O)n(CCC(=O)NCc2ccco2)c(=O)c2sccc21 | -3.77%
O=[N+]([O-])c1ccc(N2CCN(C3CCC(c4ccccc4)CC3)CC2)cc1 (stereo not shown) | 3.19%
Cc1cccc(NC(=O)CCc2nnc3ccc(N4CCC(C)CC4)nn23)n1 | -4.93%
CCCc1cc(N2CCOCC2)n2c(nc3ccccc32)c1C#N | -0.85%
COc1ccc(C(=O)NC(C)c2cc3c(cc2Cl)OCCCO3)cc1 (stereo not shown) | -1.28%
CC1CCN(Cc2ccc(-c3nn[nH]n3)cc2)CC1 | -0.551%
COc1ccc(NC(=O)c2ccc([N+](=O)[O-])cc2)c(OC)c1 | -6.99%
Cc1cc(C)n2c(SC3CCCCC3NS(=O)(=O)c3ccccc3)nnc2n1 (stereo not shown) | -3.64%
CCC(C(=O)N1CCc2ccccc2C1)n1nc(C)n2c(cc3sccc32)c1=O (stereo not shown) | 1.8%
Cc1ccccc1C(=O)Nc1sc(Cc2ccccc2)c(C)c1C(N)=O | 15.8%
Cc1ccc(-c2nnn3c2nc(NC(C)c2ccccc2)c2ccccc23)cc1 (stereo not shown) | -2.92%
Cc1ccc(C2=C/C(=C/c3ccc4c(c3)OCO4)C(=O)O2)cc1 | -1.6%
Cc1ccccc1N1C(=O)C2CC=CCC2C1=O (stereo not shown) | -3.39%
Cc1c(C(=O)Nc2ccccc2C(F)(F)F)cccc1[N+](=O)[O-] | 1.38%
